From publication PMC10668032
Some of the results follow. At the low end of the ranking the order means little.

What follows are sequences tested against SIX1 homeodomain (reference allele) (UniProt Q15475) (assay: universal protein binding microarray). Conditions: Universal all-10-mer PBM (8x60K, AMADID 030236), 300 nM GST-tagged protein, Alexa Fluor 488 anti-GST; buffer, salt, pH and temperature not stated; high values mean tight binding; most listed sequences are background and not binding sites; double strand, one strand shown.

Sequence	binding signal
ATACAACC	0.159 E-score
AGAAGGCG	0.00611 E-score
AAAAATTC	-0.317 E-score
AAAAGATA	0.161 E-score
GCACCGCC	0.0724 E-score
ATTGTCGG	0.0446 E-score
GAAGCGAC	-0.163 E-score
ACTCGTCC	-0.0883 E-score
CGACCATC	-0.12 E-score
GACTGCCA	-0.296 E-score
AGCCATAT	0.324 E-score
GTAGATTA	0.182 E-score
CTACTGCA	-0.102 E-score
ACAGTCCA	-0.165 E-score
GAATGAAC	-0.213 E-score
AAACTCCC	-0.118 E-score
CACCTCGA	0.0863 E-score
CAGTCAGA	0.0195 E-score
GTGTCCAA	0.221 E-score
AAGGGGAA	-0.223 E-score
CTAGCGAA	-0.281 E-score
CATATTAC	0.219 E-score
TGGCCACA	-0.104 E-score
ACGCTTCT	-0.105 E-score
AAACACCG	0.123 E-score

Sequence	binding signal
CGTCAGAC	-0.0794 E-score
AGCTCTTC	-0.0121 E-score
CGAAATAA	-0.131 E-score
ATATTGTA	0.294 E-score
CCGACAAG	0.0383 E-score
CCTCTAAC	0.0374 E-score
GTGCATTA	-0.131 E-score
GGCTCCTA	0.064 E-score
GCACCCCA	0.0983 E-score
ACTTAGGG	-0.0109 E-score
GAGTATTA	0.261 E-score
CCGATTCG	0.0611 E-score
AACCATTC	-0.315 E-score
ATGTAAGC	0.00536 E-score
ATCCGCAA	0.256 E-score
CTAGTAAG	-0.0158 E-score
CAACCACC	-0.183 E-score
CTCAATAA	0.023 E-score
GTTGAAAA	-0.193 E-score
CCTCCTGC	-0.129 E-score
CTTGAGCC	-0.0139 E-score
AGCGGAGA	0.134 E-score
CGAGCCTA	-0.104 E-score
CCAAACAC	-0.095 E-score
AAGGGCCG	-0.141 E-score

Sequence	binding signal
AGGAGGGC	-0.0504 E-score
AACGGGTG	0.115 E-score
GGGACATA	0.0355 E-score
AATCGTCT	0.0676 E-score
ACCGCCAC	-0.0523 E-score
GCTACACA	-0.159 E-score
CCGGAACC	0.0328 E-score
GCTAGAGC	-0.226 E-score
CAAACGCG	-0.204 E-score
CTATTCAA	-0.0673 E-score
CATGTAGG	0.05 E-score
CGATGACA	0.18 E-score
GGCGGAAA	-0.0892 E-score
AAGTGGAC	-0.0997 E-score
AAACATCA	-0.145 E-score
ACATGCAG	0.0415 E-score
GATTTATA	0.0474 E-score
CGACGGAG	-0.0295 E-score
AAAGTCTT	-0.333 E-score
CTTATAGC	-0.165 E-score
CAGTGCCG	0.0261 E-score
AGTGTTAA	0.0234 E-score
CAGTAAAA	-0.0573 E-score
GCAAACGC	-0.121 E-score
AAGACTTA	-0.183 E-score

Sequence	binding signal
ATGAATTA	0.0532 E-score
ACCCCCTA	0.258 E-score
AGAACGCA	-0.0979 E-score
ATCCTGCC	0.175 E-score
ACCAACTC	-0.148 E-score
AGTTTCGC	-0.178 E-score
CACATGTG	-0.243 E-score
TGTATGAA	0.149 E-score
CCGCCTCA	0.0502 E-score
CCCGATAC	0.438 E-score
AGGCGAGC	-0.0907 E-score
TAGGTCGA	0.0126 E-score
GAACGCGC	-0.108 E-score
CTCTATCC	0.216 E-score
ATAGGGAA	-0.028 E-score
CGCACCGA	-0.0964 E-score
TAGGAATA	0.131 E-score
CGCATGCA	0.0791 E-score
ATGACCTC	-0.0438 E-score
GCCTGGGA	0.0422 E-score
ACTGCGTC	-0.188 E-score
ACAGAAAG	-0.159 E-score
CGTCTCTA	-0.0472 E-score
AACGAATT	-0.0853 E-score
TAAGGAAA	-0.332 E-score

Sequence	binding signal
GTATGGAC	0.116 E-score
GCGGTCAC	-0.169 E-score
ACAACAGT	-0.141 E-score
ACTATGAT	0.119 E-score
CCGTTTTA	0.0369 E-score
AGTTCAAT	-0.0637 E-score
ACGGGAGT	0.231 E-score
ATTGACTG	-0.0721 E-score
ACAGCGAT	0.0697 E-score
TATATGCA	0.0994 E-score
CACAATTC	0.102 E-score
GCAAAACC	-0.145 E-score
ACACCTAG	0.231 E-score
ACTTAATG	-0.00827 E-score
CGGCTGAA	-0.182 E-score
CAAACCTG	-0.0736 E-score
ATGTGGTA	0.151 E-score
AAGTTATC	0.131 E-score
ACTACAAC	-0.0671 E-score
CAAACGAA	-0.126 E-score
CACTGGTA	0.269 E-score
CCACACCC	0.131 E-score
GACCTGGC	-0.00536 E-score
ATCTGTTA	-0.00763 E-score
AACTGAAA	-0.185 E-score

Sequence	binding signal
CGTGCGGC	-0.163 E-score
CGCATGAA	-0.0595 E-score
GATGACGC	0.0462 E-score
CGCGTTGC	-0.0952 E-score
CAGGTCCA	-0.142 E-score
AAGAGTTG	-0.11 E-score
AATTTGCG	-0.128 E-score
GCTGTGCA	-0.229 E-score
ACAGGCAT	-0.0511 E-score
AATCCCCA	0.212 E-score
CCCTACGG	0.0883 E-score
ACCACGAG	-0.118 E-score
AATAATTC	-0.209 E-score
CATTCAAC	-0.103 E-score
ACAATCTG	0.0229 E-score
ATACAGCG	0.167 E-score
ATCAATCG	0.266 E-score
CTCGCCTA	-0.15 E-score
CACCCTGC	0.207 E-score
CGAGCTAC	-0.0148 E-score
TATACGCA	0.304 E-score
GAGGTTAA	-0.188 E-score
ACGTACAG	-0.0276 E-score
GGCCCGCC	-0.198 E-score
ACGGAGGG	0.115 E-score

Sequence	binding signal
CGAACGCA	-0.0719 E-score
GGTTCCGA	-0.189 E-score
CGGAATGA	0.121 E-score
TCCGCACA	0.0488 E-score
GCACTTTA	-0.179 E-score
AAACTAGC	-0.17 E-score
GAACTCCC	-0.0241 E-score
CGTCCTAC	0.0505 E-score
CCGCGTAA	-0.00478 E-score
GCCAATAC	0.16 E-score
AGTGAGAG	-0.00284 E-score
CGTGGTTC	-0.168 E-score
ACAGCGAG	0.0875 E-score
GGTATCGA	0.463 E-score
ATCAAGGG	0.258 E-score
CAGGCCTG	-0.219 E-score
GCCCCCTA	-0.0893 E-score
CCTTCGCA	-0.129 E-score
GGTCGAGA	-0.072 E-score
CGTGTTGA	0.176 E-score
CGATGCGC	-0.0157 E-score
ATGTGGTG	0.0886 E-score
